Laboratory results: publication PMC6919601, “Identification of Plasmodium dipeptidyl aminopeptidase allosteric inhibitors by high throughput screening” (PLoS ONE, 2019)
Values joined by “and” are separate entries in the source; they are usually repeats but may differ in a detail not shown here. Identical values can stand only once. The whole screen tested about 110,000 compounds, of which about 230 (0.21%) showed an effect of 50% or more. Some of the results follow.

molecular target: DPAP1 (Plasmodium falciparum, UniProt Q8IIJ9); assay: primary screen, percent inhibition; read by cleavage of a fluorogenic dipeptide substrate; higher = more effect of the substance; parameters: species or system P. falciparum D10 trophozoite lysates; single well
Sequence (Q8IIJ9 whole entry, looked up): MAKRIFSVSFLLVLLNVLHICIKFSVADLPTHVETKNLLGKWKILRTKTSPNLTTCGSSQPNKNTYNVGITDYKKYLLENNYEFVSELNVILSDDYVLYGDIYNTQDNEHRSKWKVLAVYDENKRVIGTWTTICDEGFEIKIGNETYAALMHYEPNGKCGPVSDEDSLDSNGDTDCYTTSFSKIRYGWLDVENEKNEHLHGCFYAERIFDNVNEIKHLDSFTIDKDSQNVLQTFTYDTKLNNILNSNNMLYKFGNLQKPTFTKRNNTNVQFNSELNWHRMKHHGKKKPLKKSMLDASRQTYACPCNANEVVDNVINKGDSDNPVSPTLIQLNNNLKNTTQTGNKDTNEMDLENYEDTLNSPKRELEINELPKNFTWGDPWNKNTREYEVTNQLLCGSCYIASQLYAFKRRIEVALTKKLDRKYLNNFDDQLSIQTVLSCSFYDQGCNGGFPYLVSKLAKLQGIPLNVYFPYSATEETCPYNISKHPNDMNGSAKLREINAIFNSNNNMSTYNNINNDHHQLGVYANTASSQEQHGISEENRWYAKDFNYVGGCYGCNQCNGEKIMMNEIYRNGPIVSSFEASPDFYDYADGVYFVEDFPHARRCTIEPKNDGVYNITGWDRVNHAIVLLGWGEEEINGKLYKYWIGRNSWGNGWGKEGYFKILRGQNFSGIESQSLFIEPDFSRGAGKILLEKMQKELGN
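Note: 30 min substrate incubation versus DMSO and 10 µM JCP410 controls.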

Compound | % Inhibition @ 10 uM
CCOC(=O)C1=C(C)N=c2s/c(=C\c3ccc(-c4cccc(C(=O)O)c4)o3)c(=O)n2C1c1ccccc1 (centres unmarked) | 6.09%
N#Cc1c(NC(=O)CSc2ccccc2)sc2c1CCCC2 | -5.14%
COCCn1nnc2c(O)nc(C(=O)NCc3ccccc3Cl)nc21 | -2.91%
COCCN1Cc2cccc(C(=O)NC3CCCC3)c2C1=O | -4.14%
CCOC(=O)N1CCN(c2nc3ccc(C(=O)c4ccccc4)cc3n3cnnc23)CC1 | 2.42%
Cc1ccc(OCC(=O)Nc2ccc3oc(-c4cccnc4)nc3c2)c(C)c1 | -0.67%
CCCCNC(=O)CN(C)S(=O)(=O)c1ccc(F)cc1 | -3.87%
CC(=O)c1cccc(N2C(=O)C3C(C2=O)C3(c2ccccc2)c2ccccc2)c1 (centres unmarked) | -0.251%
COc1cccc(C2C(C#N)=C(N)OC(C)=C2C(C)=O)c1OC (centres unmarked) | 3.32%
COc1cccc(C2C(C(=O)c3ccc(Cl)cc3)=C(O)C(=O)N2CCCn2ccnc2)c1 (centres unmarked) | 1.81%
COc1ccc(C(=O)CCC(=O)N2CCN(c3ccc(N4CCOCC4)nn3)CC2)cc1 | -1.7%
Cc1ccc(NC(=O)COc2ccc(C)cc2)cc1 | 2.59%
CCSc1nc2c(c(=O)n1C1CCOC(C)(C)C1)C1(CCCCC1)Cc1ccccc1-2 (centres unmarked) | 2.81%
O/C(=C\c1nc2ccccc2nc1O)c1ccco1 | 1.8%
Cc1nn(C)c(C)c1S(=O)(=O)N1CCCC(C(=O)NC(C)c2ccccc2)C1 (centres unmarked) | 5.58%
CCC(C)NC(=O)C1CCCN(c2ncnc3onc(-c4ccc(F)cc4)c23)C1 (centres unmarked) | -2.9%
Cc1ccc2c(=O)cc(C(=O)Nc3nc4ccc(C)cc4s3)oc2c1 | 0.248%
COc1cc2c(cc1OC)C(C(=O)NC1CCCC(C)C1C)C(c1cccs1)N(C)C2=O (centres unmarked) | -2.12%
COc1ccc(C2=NS(=O)(=O)N(C)C(C(=O)NC(C)C)=C2)cc1 | 9.86%
CN(C)/C=N/c1ncnc2c1cnn2-c1ccc(C(F)(F)F)cn1 | 2.07%
COc1cc(OC)cc(C(=O)N2CCN(Cc3ccc(Cl)cc3)CC2)c1 | -3.87%
CCN(CC)CCCNC(=O)c1sc2ccccc2c1Cl | -6.29%
O=C(CCc1ccccc1)Nc1ccncc1 | -1.96%
CCOC(=O)c1c(C)[nH]c(C)c1S(=O)(=O)NCCCOC(C)C | -4.78%
Cc1cccc(Cn2c(Sc3nc4ccccc4[nH]3)nc3c2c(=O)[nH]c(=O)n3C)c1 | -0.946%

Compound | % Inhibition @ 10 uM
O=C(NCCCN1CCN(C2CCCCC2)CC1)C1CCCN(S(=O)(=O)N2CCCCC2)C1 (centres unmarked) | -5.34%
Clc1ccc(CN2CCN(c3ccccn3)CC2)cc1Cl | -7.33%
COc1ccc(-c2cc(C(=O)NCCO)c(C)o2)cc1OC | -0.403%
Cc1ccc(-n2nc3c(c2NC(=O)c2ccc(C(C)(C)C)cc2)CS(=O)(=O)C3)cc1 | -5.82%
O=C(COc1ccc(Br)cc1)NCc1cccs1 | -1.04%
CCc1cccc(C)c1NC(=O)C(CC(C)C)N1C(=O)c2ccccc2C1=O (centres unmarked) | -7.5%
CN(C)c1ccc(/C=C/c2cc(C(F)(F)F)nc(O)n2)cc1 | -0.988%
Cc1cc([N+](=O)[O-])ccc1NC(=O)c1ccc(Cl)cc1Cl | 2.46%
Cc1cc(Cl)ccc1OCC(=O)Nc1ccc(S(=O)(=O)N2CCCCC2)cc1 | -3.95%
Cc1ccsc1-c1nc(CSCC(=O)NCc2cccs2)c(C)o1 | 0.689%
c1ccc(-c2ccc(-c3csc(Nc4cccc5ccccc45)n3)cc2)cc1 | 6.11%
Cc1ccc(C(C)C)c(OCc2ccccc2C(=O)O)c1 | 0.776%
O=C(CSc1ncc(-c2ccccc2)nn1)NC1=NN=C(c2ccccc2)CS1 | -4.19%
CCN(CCc1ccccc1)CCN(C)C | -0.446%
COc1ccc2[nH]c3c(c2c1)CCCC3=O | 1.54%
COc1cc(C(=O)Nc2ccc(S(=O)(=O)Nc3cc(C)cc(C)c3)cc2)cc(OC)c1OC | -0.425%
CCC(C)NC(=O)c1noc2c1COc1ccc(C)cc1-2 (centres unmarked) | -7.84%
Cn1nc(C(=O)NCCN(Cc2ccco2)C2CCCC2)c2c1-c1ccccc1OC2 | -1.72%
Cc1ccccc1S(=O)(=O)NC(=O)Nc1ccnn1-c1ncc(C(F)(F)F)cc1Cl | -5.34% and -4.12%
CN(Cc1ccccc1)S(=O)(=O)c1ccc2[nH]cc(C=O)c2c1 | 7.79%
CS(=O)(=O)c1ccc2nc(NC(=O)C3CC=CCC3C(=O)O)sc2c1 (centres unmarked) | 0.751%
Cc1ccc(CNC(=O)Cn2c(SCc3ccc(C)cc3)nc3cccnc32)cc1 | 0.693%
CC(C)Oc1ccccc1/C=C1\CCc2ccccc2C1=O | 1.07%
COc1cccc(C2C(C(=O)Nc3cccnc3)=C(C)Nc3nc(CCCO)nn32)c1 (centres unmarked) | -1.2%
CCn1cc(C(=O)O)c(=O)c2cc(F)c(N3CCNCC3)c(F)c21 | 1.86%
